# Data reported in paper PMC11251039, “Harnessing cholesterol uptake of malaria parasites for therapeutic applications” (EMBO Molecular Medicine, 2024).
# Values joined by “and” are separate entries in the source; they are usually repeats but may differ in a detail not shown here. Equal entries are not always repeated. Further values from the same series stand in other lists.
# Legend:
# P. berghei liver stages = assay: Plasmodium berghei liver stage growth inhibition assay (luminescence, in Huh7 cells)
# [1] = test system: P. falciparum stage V gametocytes; assay: P. falciparum gametocyte viability assay (MitoTracker, flow cytometry), stage V; assay type: cell-based, Plasmodium falciparum; conditions: 48 h, replicate values, source data Fig. 2D
# Method: Gametocyte assays commenced seven days (stage III–IV) or ten days (stage V) post-invasion. […]
# Plasmodium falciparum Gametocyte Viability Assays:
# Asexual P. falciparum parasites were induced to form gametocytes as described (21).
# Synchronized trophozoite-stage parasites at 2% parasitaemia were incubated overnight and […]
# haematocrit maintained at 4%. On the subsequent day (designated as day 0) of gametocytogenesis, the culture containing early ring-stage parasites was first purified by sorbitol synchronisation to remove asynchronous trophozoites, and passed through a magnetic field in a sterile MACS® column in a SuperMACSTM II magnet to remove remaining late-stage parasites or later-stage gametocytes (negative selection). The culture medium was supplemented with 50 mM N-acetyl-D-glucosamine to inhibit asexual parasite proliferation, and changed daily. Sorbitol treatment was performed on Day 1, 5, and 6 to further remove asexual parasites. Gametocytes were magnetically enriched (positive selection) in a sterile column with a SuperMACSTM II magnet and eluted in culture media with 50 mM N-acetyl-D-glucosamine. These gametocytes were incubated overnight at 37 °C under microaerophilic conditions, and purity was assessed by examination under a light microscope (400× […]
# Gametocyte viability was assessed as described by Ridgway et al. (21) with modifications.
# Compounds or solvent controls (DMSO) were serially diluted across 96-well plates in culture media supplemented with 50 mM N-acetyl-D-glucosamine. Culture media without compound was used as a negative control. […]
# control to determine background gametocyte fluorescence. Stage III-IV gametocytes (Day 7) or stage V (day 10) gametocytes were concentrated and added to the plate with 200 µL per well. The plate was incubated for 48 hours at 37 °C under humid microaerophilic conditions.
# Parasites were then stained with 500 nM MitoTrackerTM Deep Red FM and 5 μg/ml Hoechst […]
# cytometer as described above. […]
# excluded. Live (positive) and dead (negative) gametocytes were differentiated by […]
# percentage of each was calculated. […]
# [2] = test system: asexual P. falciparum 3D7 wild-type parasites; assay: P. falciparum asexual growth inhibition assay (SYBR Safe DNA replication); assay type: cell-based, Plasmodium falciparum; set-up: unit not given here; conditions: individual replicates
# Method: P. falciparum asexual parasite assays commenced with ring-stage parasites at 1% parasitaemia and 1% haematocrit. 200 nM chloroquine (Sigma C6628) or artesunate (Sigma A3731) was used as a no-growth control. DNA replication (indicating growth) was measured at the specified time using SYBR Safe DNA Gel Stain (Invitrogen 33102) and a fluorescence microplate reader (Smilkstein et al, [2004]; Spry et al, [2013]). […]
# Growth and Viability Inhibition Assays:
# Plasmodium falciparum Growth Inhibition Assays:
# P. falciparum parasites were maintained under routine culture conditions in red blood cells and RPMI 1640-Hepes with Glutamax, supplemented with 10 mM D-glucose, 480 μM hypoxanthine, 20 μg/mL gentamicin, 0.375% (w/v) AlbuMAXTM II (Thermo Fisher 11021029), and 2.5% v/v heat-inactivated human serum (17). Cultures were maintained at 37 °C […]
# wildtype parasites except for the ring stage survival assay, as specified. Cultures were synchronised with 5% w/v D-sorbitol (18).
# Growth inhibition was investigated according to methods described by Smilkstein et al. (19) with modifications by Spry et al. (20). Compounds or solvent controls (DMSO, ethanol, or ethyl acetate) were serially diluted 2-fold across flat-bottom 96-well plates. Culture media without compound was used as a negative control. 200 nM chloroquine (Sigma C6628) or artesunate (Sigma A3731) was used as a positive control to determine background fluorescence. The parasitaemia of a culture containing predominantly ring stage parasites was counted by Giemsa smear. The parasitaemia was adjusted to 1% by addition of fresh uRBCs and added to the plate at a final haematocrit of 1%, with 200 µL per well. The plates were incubated at 37 °C under humid microaerophilic conditions. After 24, 48, or 72 hours, the plates were transferred to a -18 °C freezer to stop the assay and lyse cells. Plates were thawed and lysate was mixed 1:1 with SYBR Safe DNA Gel Stain (Invitrogen 33102) (final concentration 1/10,000) diluted in lysis buffer (20 mM TRIS, 5 mM EDTA, 0.008% w/v Saponin, 0.08% w/v Triton-X 100, pH 7.5). Fluorescence was detected at 490 nm excitation/ 520 nm emission on a FLUOstar Optima fluorescence plate reader (BMG Labtech).
smiles,measurement,setting,value
COc1cc(NC(C)CCCNC(=O)CCC(=O)OC(C)C)c2ncccc2c1 (stereo not shown) [PQ-link],Figure 3E dose-response value (replicates),"P. berghei liver stages; 0.238281250 uM, listed as BC9B",93.15 and 103.5 and 101.7 and 106.3 and 90.54 and 94.19 and 89.14 and 93.63 and 95.68 and 95.58
same,"Gametocyte stage V viability, percentage of control","[1]; 3.125000000 uM, listed as BC9B, 3.125 µM",101.8% and 103.7% and 94.55% and 118.3% and 107.7% and 99.73% and 98.74% and 100.8% and 99.04%
same,"Gametocyte stage V viability, percentage of control","[1]; 6.250000000 uM, listed as BC9B, 6.25 µM",114% and 106.6% and 105.1% and 110.1% and 99.87% and 97.45% and 101.5% and 95.48%
same,"Gametocyte stage V viability, percentage of control","[1]; 12.500000000 uM, listed as BC9B, 12.5 µM",112.9% and 98.39% and 99.38% and 104.7% and 104% and 107% and 107.3% and 101.1%
same,"Gametocyte stage V viability, percentage of control","[1]; 25.000000000 uM, listed as BC9B",92.32% and 86.87% and 97.01% and 99.59% and 94.68% and 100.4% and 103.8% and 98.04%
same,"Gametocyte stage V viability, percentage of control","[1]; 50.000000000 uM, listed as BC9B",85.37% and 92.77% and 92.47%
"CC(C)CCC[C@@H](C)[C@H]1CC[C@H]2[C@@H]3CC=C4C[C@@H](O)CC[C@]4(C)[C@H]3CC[C@]12C [Cholesterol, cholesterol]","Figure 5B dose-response source data (growth, replicate values)",[2]; Concentration 6.25 uM,101.6 and 99.26 and 99.31 and 98.29 and 102.8 and 99.42 and 104.4 and 95.79 and 103.3 and 96.14 and 91.63 and 97.29 and 100.5 and 102.7 and 101.1 and 98.36 and 94.97 and 94.59 and 95.55 and 99.39 and 95.02 and 99.46 and 99.52 and 99.91
same,"Figure 5B dose-response source data (growth, replicate values)",[2]; Concentration 12.5 uM,96.51 and 99.41 and 95.16 and 101 and 102.3 and 98.39 and 106.9 and 102.4 and 101.7 and 97.74 and 91.35 and 94.52 and 98.72 and 99.19 and 99.51 and 98.63 and 99.71 and 94.45 and 102.1 and 99.24 and 95.53 and 100.2 and 99.61 and 97.62
same,"Figure 5B dose-response source data (growth, replicate values)",[2]; Concentration 25 uM,104.5 and 98.95 and 98.24 and 96.83 and 100.4 (3×) and 98.96 and 105.9 and 103.2 and 102.2 and 98.9 and 96.25 and 93.37 and 102 and 90.39 and 101.7 and 103.5 and 97.16 and 99.16 and 97.58 and 97.63 and 97.76 and 100.6
same,"Figure 5B dose-response source data (growth, replicate values)",[2]; Concentration 50 uM,105.5 and 103.2 and 99.32 and 111.9 and 112.8 and 111.5 and 109.4 and 103.5 and 98.62 and 94.35 and 86.9 and 89.19 and 90.74 and 91.87 and 96.95 and 99.38 and 95.61 and 91.66 and 96.98 and 98.91 and 100.4 and 94.97 and 99.41 and 95.99
same,"Figure 5B dose-response source data (growth, replicate values)",[2]; Concentration 100 uM,107.1 and 101 and 101.2 and 91.32 and 91.42 and 102 and 108.7 and 103.8 and 102.1 and 93.61 and 89.6 and 96.17 and 88.16 and 93.69 and 102.9
same,"Figure 5B dose-response source data (growth, replicate values)",[2]; Concentration 200 uM,96.83 and 98.35 and 97.37 and 112.6 and 105.5 and 95.82 and 90.9 and 97.54 and 99.36 and 99.34 and 99.77 and 101.6
"COc1cc(NC(C)CCCN)c2ncccc2c1 (stereo not shown) [Primaquine, primaquine, reference compound]",Figure 3E dose-response value (replicates),P. berghei liver stages; 1.703125000 uM,85.28 and 88.56 and 83.73 and 86.56
same,"Gametocyte stage V viability, percentage of control","[1]; 0.781250000 uM, 0.78125 µM",91.21% and 93.39% and 74.28% and 105.6% and 104.2% and 91.9% and 101.3% and 93.78% and 87.93%
same,"Gametocyte stage V viability, percentage of control","[1]; 1.562500000 uM, 1.5625 µM",105.4% and 111.1% and 108.1% and 106.4% and 97.73% and 90.01%
same,"Gametocyte stage V viability, percentage of control","[1]; 6.250000000 uM, 6.25 µM",70.7% and 76.18% and 69.51% and 90.42% and 81.91% and 83.33% and 97.43% and 92.99% and 87.8%
same,"Gametocyte stage V viability, percentage of control","[1]; 12.500000000 uM, 12.5 µM",50.67% and 50.19% and 41.61% and 72.64% and 71.86% and 71.08% and 76.41% and 66.89% and 61.15%
same,"Gametocyte stage V viability, percentage of control",[1]; 25.000000000 uM,11.08% and 12.68% and 6.662% and 21.73% and 24.41% and 21.34% and 46.34% and 43.12% and 32.49%
same,"Gametocyte stage V viability, percentage of control",[1]; 50.000000000 uM,0.4307% and -0.2779% and -0.1528% and 0.1058% and 0.1764% and -0.2822% and 3.679% and 2.542% and 1.792%
same,"Gametocyte stage V viability, percentage of control",[1]; 100.000000000 uM,-0.6113% and -0.5696% and -0.5904% and -0.4586% and -0.635% and -0.5644% and 0.043% and 0.01881% and 0.05106%
same,"Gametocyte stage V viability, percentage of control",[1]; 200.000000000 uM,-0.5904% (2×) and -0.6321% and -0.5644% and -0.5292% and -0.635% and 0.01881% and -0.0215% and 0.002687%
CC(C)OC(=O)CCC(=O)O[C@H]1CC[C@H]2[C@@H]3CC=C4C[C@@H](O)CC[C@]4(C)[C@H]3CC[C@]12C [C-17-link],Figure 3E dose-response value (replicates),"P. berghei liver stages; 0.146484380 uM, listed as HJB8a53",90.79 and 78.12 and 89.75 and 97.61 and 99.99 and 98.63 and 88.77 and 86.39 and 83.1 and 99.95 and 100.6 and 95.29
same,Figure 3E dose-response value (replicates),"P. berghei liver stages; 0.292968750 uM, listed as HJB8a53",95.19 and 94.42 and 99 and 104.1 and 87.97 and 92.72 and 101.8 and 92.86
same,"Gametocyte stage V viability, percentage of control","[1]; 3.125000000 uM, listed as HJB8a53, 3.125 µM",102.3% and 104% and 93.7% and 112.7% (2×) and 92.07% and 106.5% and 101.7% and 98.77%
same,"Gametocyte stage V viability, percentage of control","[1]; 6.250000000 uM, listed as HJB8a53, 6.25 µM",98.33% and 94.03% and 100.5% and 100.6% and 87.88% and 104.3% and 102.9% and 99.6%
same,"Gametocyte stage V viability, percentage of control","[1]; 12.500000000 uM, listed as HJB8a53, 12.5 µM",95.22% and 89.73% and 104% and 99.1% and 91.22% and 105.8% and 107.5% and 102.2%
same,"Gametocyte stage V viability, percentage of control","[1]; 25.000000000 uM, listed as HJB8a53, 25 µM",91.73% and 91.59% and 92.22% and 97.42% and 94.87% and 81.03% and 110.7% and 111.2% and 112%
same,"Gametocyte stage V viability, percentage of control","[1]; 50.000000000 uM, listed as HJB8a53, 50 µM",75.77% and 59.8% and 55.21% and 99.78% and 99.3% and 100.6%
